According to US20250296996A1, “ANGIOPOIETIN-RELATED PROTEIN 7-SPECIFIC ANTIBODIES AND USES THEREOF” (Broadwing Bio, Inc., priority 2022, published 2025):

Tests used:
[1] = molecular target: T1, human ANGPTL7 GGPGG_sub-his protein (P63) (Homo sapiens, UniProt O43827, INS58GGPG/L59G); assay: Octet HTX binding kinetics to P63 (huANGTPL7-GGPGG_sub-his); details: P63 @ 100 nM
T1 construct: Additionally, the native signal peptide was removed and replaced with a signal peptide conducive to recombinant expression; made in house; host or cells: human embryonic kidney cells (transient transfection, secreted)
T1 sequence (O43827 with tags, fused parts or gaps INS58GGPG/L59G): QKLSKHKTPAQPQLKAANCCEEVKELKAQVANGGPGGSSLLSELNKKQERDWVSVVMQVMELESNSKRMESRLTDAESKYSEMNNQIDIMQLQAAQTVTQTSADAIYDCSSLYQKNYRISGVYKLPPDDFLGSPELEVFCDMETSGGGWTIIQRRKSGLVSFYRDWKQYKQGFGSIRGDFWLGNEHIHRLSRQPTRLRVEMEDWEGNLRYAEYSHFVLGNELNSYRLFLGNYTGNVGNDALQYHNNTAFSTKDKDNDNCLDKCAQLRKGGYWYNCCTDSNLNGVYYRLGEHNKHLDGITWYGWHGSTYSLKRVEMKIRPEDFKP
Description: Experiments were also conducted to determine the reactivity and dissociation constants (KD) of anti-ANGPTL7 antibodies with the human ANGPTL7 GGPGG_sub-his protein. Binding experiments were performed on Octet HTX (ForteBo) in 1×PBS, pH 7.4, 0.1 mg/mi BSA, 0.05% Sodium Azide, and 0.02% Tween 20. Antibodies at a concentration of 50 nM were loaded on pre-hydrated AHC biosensors for 5 min. The loaded sensors were dipped into monovalent P63 (huANGTPL7-GGPGG_sub-his) at a concentration of 100 nM for 5 min of association, followed by 10 min of dissociation. Results were analyzed with ForteBio Data Analysis 11.1 and fit to a 1:1 binding model to determine the monovalent KD.

[2] = molecular target: T2, human fibrinogen domain of the ANGPTL7 protein (P60, huANGPTL7-Fibrinogen-his) (Homo sapiens, UniProt O43827); assay: Octet HTX binding kinetics to P60 (huANGPTL7-Fibrinogen-his); details: P60 @ 200 nM
T2 construct: made in house; host or cells: human embryonic kidney cells (transient transfection, secreted)
T2 sequence (O43827 129-343): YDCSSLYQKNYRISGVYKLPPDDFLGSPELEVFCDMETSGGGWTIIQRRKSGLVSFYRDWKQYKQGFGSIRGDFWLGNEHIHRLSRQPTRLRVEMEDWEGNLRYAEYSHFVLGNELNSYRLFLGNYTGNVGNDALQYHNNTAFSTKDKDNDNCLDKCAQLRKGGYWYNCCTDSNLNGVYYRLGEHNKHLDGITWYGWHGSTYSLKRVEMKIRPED
Description: ANGPTL7 Antibody Kinetics. Experiments were conducted to determine the reactivity and dissociation constants (KD) of anti-ANGPTL7 antibodies with the human fibrinogen domain of the ANGPTL7 protein. Binding experiments were performed on Octet HTX (ForteBio) in 1×PBS, pH 7.4, 0.1 mg/ml BSA, 0.05% Sodium Azide, and 0.02 Tween 20. Antibodies at a concentration of 50 nM were loaded on pre-hydrated AHC biosensors for 5 min. The loaded sensors were dipped into monovalent P60 (huANGPTL7-Fibrinogen-his) at a concentration of 200 nM for 5 min association, followed by 10 min dissociation. Results were analyzed with ForteBio Data Analysis 11.1 and fit to a 1:1 binding model to determine the monovalent KD. Responses (nm) at the end of association were also determined (Table 2).

[3] = test system: rabbit ANGPTL7 protein (P66, rabbit ANGPTL7-his); assay: Octet HTX binding kinetics to P66 (rabbit ANGPTL7-his); details: P66 @ 200 nM
Description: Experiments were also conducted to determine the reactivity and dissociation constants ([…]) of anti-ANGPTL7 antibodies with the rabbit ANGPTL7 protein. Binding experiments were performed on Octet HTX (ForteBio) in Rx PBS, pH 7.4, 0.1 mg/mi BSA, 0.05% Sodium Azide, and 0.02% Tween 20. Antibodies at a concentration of 50 nM were loaded on pre-hydrated AHC biosensors for 5 min. The loaded sensors were dipped into monovalent P66 (rabbit ANGPTL7-his) at a concentration of 200 nM for 5 min of association, followed by 10 min of dissociation. Results were analyzed with ForteBio Data Analysis 11.1 and fit to a 1:1 binding model to determine the monovalent KD. Responses (nm) at the end of association were also determined (Table 6).

[4] = molecular target: T3, human ANGPTL7-his protein (P62, huANGPTL7-his) (Homo sapiens, UniProt O43827, L59P/L84P); assay: Octet HTX binding kinetics to P62 (huANGPTL7-his); details: P62 @ 250 nM, 3X dilution
T3 construct: Additionally, the native signal peptide was removed and replaced with a signal peptide conducive to recombinant expression; made in house; host or cells: human embryonic kidney cells (transient transfection, secreted)
T3 sequence (O43827 27-346 L59P/L84P): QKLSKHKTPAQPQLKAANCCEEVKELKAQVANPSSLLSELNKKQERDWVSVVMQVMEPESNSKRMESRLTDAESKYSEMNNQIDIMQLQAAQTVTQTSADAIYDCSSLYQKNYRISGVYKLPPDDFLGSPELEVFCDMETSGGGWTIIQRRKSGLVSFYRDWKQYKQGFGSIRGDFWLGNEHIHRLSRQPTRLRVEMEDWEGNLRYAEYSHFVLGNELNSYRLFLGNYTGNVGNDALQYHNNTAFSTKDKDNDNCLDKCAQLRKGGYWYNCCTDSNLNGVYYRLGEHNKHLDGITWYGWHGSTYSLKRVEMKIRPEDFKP
Description: Experiments were also conducted to determine the reactivity and dissociation constants (KD) of anti-ANGPTL7 antibodies with the human ANGPTL7-his protein. Binding experiments were performed on Octet HTX (ForteBio) in 1×PBS, pH 7.4, 0.1 mg/mi BSA, 0.05% Sodium Azide, and 0.02% Tween 20. To measure monovalent binding kinetics, antibodies at a concentration of 50 nM were loaded on pre-hydrated AHC biosensors for 5 min. The loaded sensors were dipped into monovalent P62 (huANGPTL7-his) at a range of concentration from 0.343-250 nM (a serial 3-fold dilution) for 5 min association, followed by 10 min dissociation. Results were analyzed with ForteBio Data Analysis 11.1 and fit globally to a 1:1 binding model to determine the monovalent KD (Table 3).

B1: ATX-P-433: human anti-ANGPTL7 monoclonal antibody; HCDR1-3 SEQ ID NOs 42, 58, 73; LCDR1-3 SEQ ID NOs 94, 106, 118 (antibody)
heavy: EVQLVESGGGLVQPGRSLRLSCAASGFTFDDFAMHWVRQGPGKGLEWVSGIGWNSGSIGYADSVKGRFTISRDNAKNSLYLQMNSLRAEDTALYYCAKAPDYGDYYFDYWGQGTLVTVSS
light: DIQMTQSPSSLSASVGDRVTITCRASQSISIYLNWYQQKPGTAPKLLIYAASSLQSGVPSRFSGSGSGTDFTLTISSLQPEDFAAYYCQQSYTTPLTFGGGTKVEIKRTVAAPSVFIFPPSDEQLKSGTASVVCLLNNFYPREAKVQWKVDNALQSGNSQESVTEQDSKDSTYSLSSTLTLSKADYEKHKVYACEVTHQGLSSPVTKSFNRGEC
Question: Which “kdis” value [1] does the source give for B1 here?
Answer: Its value is 0.00253 s⁻¹.

Question: What about the “kon” value [1] of the same molecule?
Answer: The value was 134000 M⁻¹ s⁻¹.

Question: And the “kdis” value [2]?
Answer: The value was 0.00243 s⁻¹.

Question: And the “kon” value [2]?
Answer: Its value is 223000 M⁻¹ s⁻¹.

Question: What about the “kdis(1/8)” value [3] of the same molecule?
Answer: The value was 7.27E−04 1/8.

Question: What about the “kon” value [3] of the same molecule?
Answer: Its value is 104000 M⁻¹ s⁻¹.

Question: And the “kdis(1/s) or (koff)” value [4]?
Answer: Its value is 0.00056 s⁻¹.

Question: What about the “kon” value [4] of the same molecule?
Answer: Its value is 431000 M⁻¹ s⁻¹.
